# Test results: PMC4336329 (PLoS ONE, 2015)
# Out of some 310,000 compounds screened, about 14,000 (4.5%) showed an effect of 50% or more. The effect is printed as a negative number. The list shows a part of the results.
# Biological target: human ether-à-go-go-related gene (hERG) potassium channel (human, UniProt Q12809)
# Assay: primary screen, population patch clamp on CHO cells stably expressing hERG
# 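Note: peak tail current of the secondary pulse compared with the same well before compound.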
# Chain of human ether-à-go-go-related gene (hERG) potassium channel (Q12809 whole entry, looked up): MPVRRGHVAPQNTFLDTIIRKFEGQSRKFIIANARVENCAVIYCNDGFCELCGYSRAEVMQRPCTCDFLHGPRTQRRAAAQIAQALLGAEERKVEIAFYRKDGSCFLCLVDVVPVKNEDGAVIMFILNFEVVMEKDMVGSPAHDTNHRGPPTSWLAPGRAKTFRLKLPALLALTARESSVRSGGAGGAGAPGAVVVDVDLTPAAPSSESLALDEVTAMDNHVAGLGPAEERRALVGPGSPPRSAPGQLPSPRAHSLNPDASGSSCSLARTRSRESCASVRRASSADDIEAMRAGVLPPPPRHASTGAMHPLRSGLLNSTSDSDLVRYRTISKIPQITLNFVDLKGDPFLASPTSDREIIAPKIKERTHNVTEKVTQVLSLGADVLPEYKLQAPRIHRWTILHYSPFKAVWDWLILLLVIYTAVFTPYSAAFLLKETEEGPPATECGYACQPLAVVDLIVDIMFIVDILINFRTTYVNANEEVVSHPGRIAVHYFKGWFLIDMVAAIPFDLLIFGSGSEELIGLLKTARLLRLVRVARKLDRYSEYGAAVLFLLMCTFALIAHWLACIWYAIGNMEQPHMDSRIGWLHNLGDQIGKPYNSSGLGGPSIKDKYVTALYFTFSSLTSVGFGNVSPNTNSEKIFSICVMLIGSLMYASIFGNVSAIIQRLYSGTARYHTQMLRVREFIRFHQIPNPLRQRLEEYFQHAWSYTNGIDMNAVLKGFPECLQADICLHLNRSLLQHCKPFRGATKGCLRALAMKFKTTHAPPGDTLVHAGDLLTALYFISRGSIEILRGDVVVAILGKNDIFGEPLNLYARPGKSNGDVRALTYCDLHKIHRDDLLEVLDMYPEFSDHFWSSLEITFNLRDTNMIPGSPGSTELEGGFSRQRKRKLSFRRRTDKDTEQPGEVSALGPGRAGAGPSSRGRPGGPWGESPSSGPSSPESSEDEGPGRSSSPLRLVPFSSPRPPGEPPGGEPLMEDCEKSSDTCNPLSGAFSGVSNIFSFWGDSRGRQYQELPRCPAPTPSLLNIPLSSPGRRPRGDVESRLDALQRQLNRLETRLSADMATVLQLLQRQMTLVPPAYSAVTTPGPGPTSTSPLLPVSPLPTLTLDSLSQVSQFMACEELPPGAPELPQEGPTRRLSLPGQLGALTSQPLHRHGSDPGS
row,SMILES,"hERG current change (%, negative = inhibition) at 10uM [%]"
1,CC1(C)CC(CCNC(=O)CCl)(c2ccccc2)CCO1 (stereo not drawn),22.1
2,O=C(N/N=C/C=C/c1ccccc1[N+](=O)[O-])c1cc(-c2cccnc2)nc2ccccc12,-2.81
3,Cc1c(Cl)c([N+](=O)[O-])nn1Cc1ccc(C(=O)NN)o1,-1.63
4,Cc1cc(C)n(-c2nc3c(c(=O)[nH]c(=O)n3C)n2Cc2ccc(F)cc2)n1,-4.72
5,Cc1onc(-c2ccccc2)c1C(=O)N/N=C/C=C/c1ccccc1,8.24
6,CC(C)NC(=O)CN(Cc1ccc2c(c1)OCO2)C(=O)CCC(=O)Nc1ccccn1,1.7
7,Cc1ccc(C2=N/C(=C\c3cccnc3)C(=O)O2)cc1,4.43
8,COc1ccc(C(=O)C2CCCN(Cc3cnc(N4CCOCC4)s3)C2)cc1F (stereo not drawn),-47.6
9,COc1ccc(CNC(=O)CNC(=O)c2cccs2)c(OC)c1,13
10,O=C(CN(CCc1ccccc1)S(=O)(=O)c1ccc(Cl)cc1)N/N=C/c1ccccc1C(=O)O,14.6
11,O=C(Nc1cccc(C(F)(F)F)c1)Nn1cnnc1,24
12,Cc1cc(C)c2[nH]c(=O)c(CN(CC3CCCO3)C(=O)c3cnccn3)cc2c1 (stereo not drawn),-2.75
13,O=C(Nc1ccc2c(c1)CCC2)c1cccc(F)c1,-14.1
14,COc1cc(/C=N/NC(=O)COc2ccc(Cl)cc2)ccc1OS(=O)(=O)c1ccc(C)cc1,0.463
15,Cc1cc(NC(=O)c2ccc3c(c2)C(=O)N(Cc2cccnc2)C3=O)no1,9.59
16,COc1ccccc1CNC(=O)CSc1nc2c(oc3ccccc32)c(=O)n1CC1CCCO1 (stereo not drawn),-7.92
17,O=C(N/N=C/c1ccc(Cl)c([N+](=O)[O-])c1)c1cc(-c2ccccc2)nc2ccccc12,17.1
18,C/C(=N\NC(=O)CNC(=O)c1ccncc1)c1ccc(C)cc1,5.81
19,CCOC(=O)C1=C(COC(=O)c2ccc3ccccc3c2O)NC(=O)NC1C (stereo not drawn),-32.4
20,Cc1ccc2nc(-c3ccccn3)oc2c1,8.03
21,COc1cccc(NCc2nnc(SCC(=O)N(C)C3CCS(=O)(=O)C3)n2C2CCCCC2)c1 (stereo not drawn),6.11
22,O=C(Nc1ccnn1C1CCN(Cc2c(F)cccc2Cl)CC1)C1CCCC1,-32.1
23,FC(F)(F)c1ccccc1NC(=S)N1CCN(c2ncccn2)CC1,9.67
24,COc1cc(OC)cc(C(=O)OC(C)C(=O)NC2CCCc3ccccc32)c1 (stereo not drawn),5.94
25,CCOC(=O)[C@@H]1[C@H]2COc3ccc(Br)cc3[C@@H]2N2C(=O)N(c3ccc(C(F)(F)F)cc3)C(=O)[C@]12C,20
26,O=C(O)c1ccc(Cn2c(=S)[nH]c3cc(Cl)ccc3c2=O)cc1,16
27,c1ccc(-n2c(SCC3CCCCO3)nnc2-c2cccs2)cc1 (stereo not drawn),-11

row,SMILES,"hERG current change (%, negative = inhibition) at 10uM [%]"
1,Cc1ccc(Cn2cccc(NC(=O)NCc3ccccc3)c2=O)cc1,-6.27
2,O=C(CSc1nnc2ccc(-c3cccnc3)nn12)Nc1ccc(F)cc1F,-64.9
3,CCOC(=O)c1sc(-c2ccc(Cl)cc2Cl)nc1O,17.8
4,CC(C)(C)NS(=O)(=O)c1cccc2nsnc12,19.9
5,COc1cccc(-c2cc(C(=O)NCCCn3ccnc3)no2)c1,-10.1
6,Cc1nc(-c2ccccc2)sc1C1(C)CC(c2ccc(C#N)cc2)=NO1 (stereo not drawn),-3.07
7,CCCC(=O)Oc1ccc(N(C(=O)CCC)S(=O)(=O)c2cccs2)cc1,10.9
8,Cc1cc(-c2ccc(N3C(=O)CCC3=O)c(C)c2)ccc1N1C(=O)CCC1=O,10.1
9,Cc1ccc(CC(CC(=O)O)C(=O)Nc2ccc(Cl)cc2)cc1 (stereo not drawn),3.33
10,O=C(NCC1CCN(S(=O)(=O)c2ccccc2)CC1)Nc1ccc(F)cc1F,-4.47
11,CCc1nnc(NS(=O)(=O)c2ccc(N/C=C\C(=O)c3ccc(F)cc3)cc2)s1,31.2
12,CC(NC(=O)NC1CCCCC1)C(c1cccs1)N1CCN(Cc2ccccc2)CC1 (stereo not drawn),-56.7
13,Cc1ccc(NC(=O)c2ccc(S(=O)(=O)C(F)F)cc2)c(C)c1,-19.7
14,CCCn1c(=O)c(C(=O)N/N=C/c2ccccc2F)c(O)c2ccccc21,9.04
15,COc1ccc(/C(O)=C2\C(=O)C(=O)N(CC3CCCO3)C2c2cc(OC)ccc2OC)cc1 (stereo not drawn),-4.68
16,N#C/C(=C\c1ccc(OCc2ccc(C(=O)O)cc2)cc1)C(=O)N1CCOCC1,-8.02
17,COc1ccc(C(=O)c2c(-c3ccc(OC)cc3)oc3ccccc23)cc1,4.22
18,O=C(NC1CCCc2ccccc21)c1cc(F)cc(F)c1 (stereo not drawn),18.5
19,Cc1ccc(CN2CN(S(=O)(=O)c3cccs3)c3nc4ccccc4nc32)cc1,-4.87
20,COc1ccc2cc(S(=O)(=O)N3CCCCCC3)ccc2c1,-18.3
21,Cc1ccc(C)c(NC(=O)CSc2nc3nc(-c4cccs4)cc(C(F)(F)F)c3c(=O)[nH]2)c1,-20
22,COc1ccc(N2C(S)=C(C#N)C(=O)NC2c2ccco2)cc1 (stereo not drawn),5.69
23,Cc1ccc(C)n1CCN1CCN(C(=O)CC#N)CC1,16.3
24,Cc1c(/C=N/NC(=O)COc2ccccc2[N+](=O)[O-])c2ccccc2n1C,9.35
25,COC(=O)c1ccc(CSc2n[nH]c(C)n2)o1,-0.248
26,S=C(N/N=C/c1ccc(Cl)cc1)N1CCOCC1,-31.4
27,CCOC(=O)c1ccc(CSc2ncn[nH]2)o1,16.7
